Laboratory results as given in the supplement of paper PMC8728848.
The list shows a part of the results.

What was measured:
Assay in all cases: glycan array binding signal (z-score within array); higher = stronger binding
Conditions in all cases: glycan notation: IUPAC condensed, linker removed
[1] = biological target: GlcNAc(b1-3)GalNAc
Outline: (§1)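 Columns mapping to the same glycan were averaged after glycan names were converted to IUPAC-condensed notation. The data come from 3228 arrays in the Consortium for Functional Glycomics database, limited to those with an available protein sequence. Binding is reported as a within-array Z-score averaged across arrays of one protein sequence and across linkers.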

[2] = biological target: GlcNAc(b1-3)Man
Outline: as §1

[3] = biological target: GlcNAc(b1-3)[GlcNAc(b1-4)][GlcNAc(b1-6)]GlcNAc
Outline: as §1

[4] = biological target: GlcNAc(b1-3)[GlcNAc(b1-6)]Gal(b1-4)GlcNAc
Outline: as §1

[5] = biological target: GlcNAc(b1-3)[GlcNAc(b1-6)]GalNAc
Outline: as §1

[6] = biological target: GlcNAc(b1-4)Gal(b1-4)GlcNAc
Outline: as §1

[7] = biological target: GlcNAc(b1-4)GlcNAc
Outline: as §1

[8] = biological target: GlcNAc(b1-4)GlcNAc(b1-4)GlcNAc
Outline: as §1

[9] = biological target: GlcNAc(b1-4)GlcNAc(b1-4)GlcNAc(b1-4)GlcNAc(b1-4)GlcNAc
Outline: as §1

[10] = biological target: GlcNAc(b1-4)GlcNAc(b1-4)GlcNAc(b1-4)GlcNAc(b1-4)GlcNAc(b1-4)GlcNAc
Outline: as §1

[11] = biological target: GlcNAc(b1-4)[GlcNAc(b1-6)]GalNAc
Outline: as §1

[12] = biological target: GlcNAc(b1-6)Gal(b1-4)GlcNAc
Outline: as §1

[13] = biological target: GlcNAc(b1-6)GalNAc
Outline: as §1

[14] = biological target: GlcNAc3Prop(b1-4)GlcNAc
Outline: as §1

[15] = biological target: GlcNAc6S(b1-3)Gal(b1-4)GlcNAc
Outline: as §1

[16] = biological target: Kdn(a2-3)Gal(b1-3)GalNAc
Outline: as §1

[17] = biological target: Kdn(a2-3)Gal(b1-3)GlcNAc
Outline: as §1

[18] = biological target: Kdn(a2-3)Gal(b1-4)Glc
Outline: as §1

[19] = biological target: Kdn(a2-3)Gal(b1-4)GlcNAc
Outline: as §1

[20] = biological target: Kdn(a2-3)Gal(b1-4)[Fuc(a1-3)]GlcNAc
Outline: as §1

[21] = biological target: Kdn(a2-6)Gal(b1-4)GlcNAc
Outline: as §1

[22] = biological target: Man(a1-2)Man(a1-2)Man(a1-3)Man
Outline: as §1

[23] = biological target: Man(a1-2)Man(a1-2)Man(a1-6)[Man(a1-3)]Man
Outline: as §1

[24] = biological target: Man(a1-2)Man(a1-3)Man
Outline: as §1

[25] = biological target: Man(a1-2)Man(a1-3)[Man(a1-2)Man(a1-6)]Man
Outline: as §1

[26] = biological target: Man(a1-2)Man(a1-3)[Man(a1-2)Man(a1-6)]Man(a1-6)[Man(a1-2)Man(a1-2)Man(a1-3)]Man
Outline: as §1

[27] = biological target: Man(a1-2)Man(a1-3)[Man(a1-2)Man(a1-6)]Man(a1-6)[Man(a1-2)Man(a1-2)Man(a1-3)]Man(b1-4)GlcNAc(b1-4)GlcNAc
Outline: as §1

[28] = biological target: Man(a1-2)Man(a1-3)[Man(a1-6)]Man(a1-6)[Man(a1-2)Man(a1-3)]Man(b1-4)GlcNAc(b1-4)GlcNAc
Outline: as §1

[29] = biological target: Man(a1-2)Man(a1-6)[Man(a1-3)]Man(a1-6)[Man(a1-2)Man(a1-2)Man(a1-3)]Man
Outline: as §1

[30] = biological target: Man(a1-2)Man(a1-6)[Man(a1-3)]Man(a1-6)[Man(a1-2)Man(a1-2)Man(a1-3)]Man(b1-4)GlcNAc(b1-4)GlcNAc
Outline: as §1

[31] = biological target: Man(a1-3)[Man(a1-6)]Man
Outline: as §1

[32] = biological target: Man(a1-3)[Man(a1-6)]Man(a1-6)[Man(a1-2)Man(a1-3)]Man(b1-4)GlcNAc(b1-4)GlcNAc
Outline: as §1

[33] = biological target: Man(a1-3)[Man(a1-6)]Man(a1-6)[Man(a1-3)]Man
Outline: as §1

[34] = biological target: Man(a1-3)[Man(a1-6)]Man(a1-6)[Man(a1-3)]Man(b1-4)GlcNAc(b1-4)GlcNAc
Outline: as §1

[35] = biological target: Man(a1-3)[Man(a1-6)]Man(b1-4)GlcNAc(b1-4)GlcNAc
Outline: as §1

[36] = biological target: Man(a1-6)Man
Outline: as §1

[37] = biological target: Man(b1-4)GlcNAc
Outline: as §1

[38] = biological target: Neu5Ac(a2-3)Gal
Outline: as §1

B1: PILRa (Homo sapiens), Q9UKJ1 (protein)
chain: MGRPLLLPLLPLLLPPAFLQPSGSTGSGPSYLYGVTQPKHLSASMGGSVEIPFSFYYPWELATAPDVRISWRRGHFHRQSFYSTRPPSIHKDYVNRLFLNWTEGQKSGFLRISNLQKQDQSVYFCRVELDTRSSGRQQWQSIEGTKLSITQAVTTTTQRPSSMTTTWRLSSTTTTTGLRVTQGKRRSDSWHISLETAVGVAVAVTVLGIMILGLICLLRWRRRKGQQRTKATTPAREPFQNTEEPYENIRNEGQNTDPKLNPKDDGIVYASLALSSSTSPRAPPSHRPLKSPQNETLYSVLKA
Question: What does the source list for B1?
Answer: glycan array binding signal (z-score) [1]: -0.116; glycan array binding signal (z-score) [2]: -0.253; glycan array binding signal (z-score) [3]: -0.23; glycan array binding signal (z-score) [4]: -0.307; glycan array binding signal (z-score) [5]: -0.261; glycan array binding signal (z-score) [6]: -0.237; glycan array binding signal (z-score) [7]: -0.15; glycan array binding signal (z-score) [8]: -0.136; glycan array binding signal (z-score) [9]: -0.089; glycan array binding signal (z-score) [10]: -0.305; glycan array binding signal (z-score) [11]: -0.213; glycan array binding signal (z-score) [12]: -0.197; glycan array binding signal (z-score) [13]: -0.232; glycan array binding signal (z-score) [14]: -0.294; glycan array binding signal (z-score) [15]: -0.138; glycan array binding signal (z-score) [16]: -0.121; glycan array binding signal (z-score) [17]: 0.431; glycan array binding signal (z-score) [18]: -0.121; glycan array binding signal (z-score) [19]: -0.433; glycan array binding signal (z-score) [20]: 0.561; glycan array binding signal (z-score) [21]: -0.3; glycan array binding signal (z-score) [22]: -0.07; glycan array binding signal (z-score) [23]: -0.343; glycan array binding signal (z-score) [24]: -0.144; glycan array binding signal (z-score) [25]: -0.276; glycan array binding signal (z-score) [26]: -0.301; glycan array binding signal (z-score) [27]: -0.324; glycan array binding signal (z-score) [28]: -0.334; glycan array binding signal (z-score) [29]: -0.337; glycan array binding signal (z-score) [30]: -0.313; glycan array binding signal (z-score) [31]: -0.372; glycan array binding signal (z-score) [32]: -0.215; glycan array binding signal (z-score) [33]: -0.232; glycan array binding signal (z-score) [34]: -0.16; glycan array binding signal (z-score) [35]: -0.085; glycan array binding signal (z-score) [36]: -0.187; glycan array binding signal (z-score) [37]: -0.254; glycan array binding signal (z-score) [38]: -0.314
